The record followed here is PubChem BioAssay AID463173 (ICCB-Longwood Screening Facility, Harvard Medical School, 2010).

Each structure is given as a SMILES string. The campaign covered roughly 52,000 compounds. About 1,700 (3.3%) were called active. Rule as the data show it: active = survival mostly below about 52% (no sharp cut-off); inactive = mostly above about 56%. This is one part of the list.

The subject of the experiment is Wild type. The experiment can be described thus: growth inhibition of S. aureus wild type versus tarO mutant, primary screen, teichoic acid synthesis inhibitors, RN4220, OD600 (AID 463173). The settings on record: S. aureus RN4220 wild type/DeltatarO growth, OD600, 18 h, active compounds read low, screened at 18.75 µg/mL (by protocol).
`COc1ccc(-n2nc3c(c2NC(=O)C(=O)N2CCN(C)CC2)CSC3)cc1`: the survival is inactive: 84%.

Consider `CC(C)(C)C(=O)CNS(=O)(=O)c1ccc(S(=O)(=O)N2CCCC2)cc1`, for which the survival is inactive: 99%.

Consider `Cc1cc(C)cc(OCC(=O)Nc2cccc(-c3nc4ccccc4[nH]3)c2)c1`, for which the survival was inactive: 50%.

Regarding `O=C(Cn1c(=O)n(-c2ccc(F)cc2)c(=O)c2sccc21)Nc1cccc(C(F)(F)F)c1`, the survival is inactive: 72%.

As for `CC1CCCC(C)N1CCNC(=O)c1cn(C(C)c2ccccc2F)nn1` (stereo unspecified), the survival is inactive: 104%.

Take `Cc1ccc(-n2nc3c(=O)n(C(C)C(=O)O)nc(C)c3c2C)cc1` (stereo unspecified): the survival was inactive: 86%.

Take `COc1cccc(CNC(=O)Cn2c(=O)oc3cc(S(=O)(=O)N4CCC(C)CC4)ccc32)c1`: the survival is inactive: 132%.

Take `O=C(O)c1ccc(N=NN2CCCCC2)cc1`: the survival was inactive: 104%.

In the case of `CCOC(=O)N1CCN(C(=O)CN(Cc2ccc(F)cc2)S(=O)(=O)c2ccc(C)cc2)CC1`, the survival was inactive: 104%.

Regarding `COc1ccc(Cn2c(C(=O)O)c(CNCCc3ccccc3Cl)c3ccc(C)cc32)cc1`, the survival was inactive: 59%.

`CN(C)CCCNc1c2c(nc3cc(-c4cccc(F)c4)nn13)CCC2`: the survival was inactive: 106%.

For the compound `CCC(=O)N1CCc2cc(S(=O)(=O)CCC(=O)NCc3ccc(F)cc3)ccc21`, the survival is inactive: 87%.

For the compound `c1ccc2oc(SCc3nc4c5c6c(sc5ncn4n3)CCCC6)nc2c1`, the survival was inactive: 112%.

On to `Cc1cccc(NC(=O)CSc2nnc(-c3ccoc3C)n2CC(C)C)c1C`, for which the survival was inactive: 107%.

`CC(C)NC(=O)c1cc2c(Cl)nc3ccccc3c2s1`: the survival was inactive: 80%.

On to `Cc1cc(O)c(C(=O)c2cnc3c(c2)COc2ccccc2-3)cc1Cl`, for which the survival was inactive: 64%.

For `Cc1ccc(CNC(=O)c2ccc3c(c2)N(Cc2cccc(Cl)c2)C(=O)CS3)cc1`, the survival was inactive: 70%.

Consider `CCn1c(N2CCN(C(=O)Nc3ccc(Cl)c(C(F)(F)F)c3)CC2)nc2ccccc21`, for which the survival was active: 0%.

Take `CCOc1ccc(NC(=O)Cn2cc(C(=O)c3ccc(C)c(C)c3)c(=O)c3cc(F)ccc32)cc1`: the survival was inactive: 89%.

For `CCC1(C)Cc2ccccc2/C(=C/C(=O)N2CCCCC2)N1` (stereo unspecified), the survival is inactive: 102%.

Take `Cc1ccc(Cl)cc1NC(=O)Cn1c(=O)n(CCC(=O)N2CCc3ccccc3C2)c(=O)c2ccccc21`: the survival is inactive: 132%.

On to `CCOc1ccc2nc(N3CCCC(C(=O)NCCc4ccc(SC)cc4)C3)sc2c1` (stereo unspecified), for which the survival is inactive: 114%.

Turning to `COc1cc(NC(=O)CSc2nc3nc(C)c(Cc4ccccc4)c(C)n3n2)cc(OC)c1`, the survival was inactive: 121%.

Consider `O=C(NCc1ccccc1)C1CCCN(C(=O)Nc2ccccc2)C1` (stereo unspecified), for which the survival was inactive: 104%.

Take `O=S(=O)(NC1=NCCS1)c1ccc(N=NN2CCCCC2)cc1`: the survival was inactive: 114%.

For the compound `CCN(c1ccc(C)cc1C)S(=O)(=O)c1nnc(NC(=O)CC(C)C)s1`, the survival was inactive: 79%.

On to `COc1cccc(NC(=O)CSc2cc(C)[nH]c(=O)n2)c1`, for which the survival is inactive: 68%.

Turning to `CCN(CC)c1nn2c(=O)c(C(=O)NCc3cccc(OC)c3OC)cnc2s1`, the survival was inactive: 72%.

Consider `NC(CC(=O)OC1CCCCC1)C(=O)OC1CCCCC1` (stereo unspecified), for which the survival is inactive: 116%.

For the compound `Cc1cccc(NCN2C(=O)S/C(=C/c3ccc(N(C)C)cc3)C2=O)c1`, the survival is inactive: 115%.

For `COCCCNC(=O)c1sc2nc(C)c(C(=O)Nc3ccc(Cl)cc3)c(-c3ccc(Br)cc3)c2c1N`, the survival was inactive: 77%.

`CC1N=C2c3ccccc3N=C(SCC(=O)NCc3ccc(Cl)cc3)N2C1=O` (stereo unspecified): the survival was inactive: 68%.

On to `CCS(=O)(=O)N1CC(=O)N(c2cccc(C)c2C)C(C)(C(=O)NC2CCCCCC2)C1` (stereo unspecified), for which the survival is inactive: 69%.

With `O=S(=O)(NCc1ccco1)c1cccc(S(=O)(=O)N2CCCCC2)c1`, the survival was inactive: 116%.

Regarding `Cc1cc2c(C)cc(=O)oc2c2c1NCCC2`, the survival is inactive: 104%.

Consider `COc1cccc(-c2n[nH]c3c2C(c2cccc(O)c2)N(C)C3=O)c1` (stereo unspecified), for which the survival was inactive: 80%.

In the case of `Cc1nc(SCC(=O)Nc2ccccc2Cl)cc(-c2ccccc2)n1`, the survival is inactive: 87%.

For the compound `Cc1c2cnn(-c3ccccc3)c(=O)c2c(C)n1CC(=O)N1CCN(c2cccc(Cl)c2)CC1`, the survival was inactive: 92%.

`COc1ccc(CNC(=O)c2cnn(-c3ccc(OC)cc3)c2C2CCN(C(=O)OC(C)(C)C)CC2)cc1`: the survival is inactive: 76%.

`COCCCNc1ncnc2ccc(Br)cc12`: the survival was inactive: 114%.

Take `CN1CCN(C(=O)c2ccc(N(C)S(C)(=O)=O)cc2)CC1`: the survival is inactive: 112%.

Turning to `Cc1ccccc1OCC(=O)NCC(c1ccc(Cl)cc1)N1CCOCC1` (stereo unspecified), the survival was inactive: 74%.

Take `Cc1cccc2c1-c1sc(C(=O)Nc3ccccc3C(N)=O)cc1CO2`: the survival was inactive: 87%.

In the case of `CCC(=O)Nc1cc(-c2nc3cc(C)cc(C)c3o2)ccc1C`, the survival is inactive: 78%.

On to `CCCCOc1ccc(S(=O)(=O)Nc2ccc(-c3ccc(N4CCCCC4)nn3)cc2)cc1`, for which the survival was inactive: 73%.

`CCc1cc2c(cc3c(=O)n(CC(=O)NC4CCC(C)CC4)nc(CC)n32)s1` (stereo unspecified): the survival was inactive: 126%.

`O=C(Nc1cccc2cccnc12)c1cccc2c(Br)cccc12`: the survival was inactive: 77%.

Take `O=C1c2oc3ccccc3c(=O)c2C(c2ccccc2F)N1Cc1ccc2c(c1)OCO2` (stereo unspecified): the survival was inactive: 74%.

On to `Cc1cc(C)cc(NC(c2cccc(Cl)c2)c2nnc(-c3ccccc3)o2)c1` (stereo unspecified), for which the survival was inactive: 91%.

Consider `Cc1c(C(=O)N(C)c2ccccc2)sc2nc(-c3ccc(F)cc3)cn12`, for which the survival is inactive: 74%.

Take `COc1ccc(NC(=O)Cn2ccn(Cc3ccccc3)c(=O)c2=O)cc1Cl`: the survival is inactive: 90%.

Turning to `CCN(CC)C(=O)CSc1nnc(Cc2ccccc2)n1CC`, the survival was inactive: 103%.

Consider `CCc1ccccc1NC(=O)Cn1c(C(=O)OC)cc2oc(C)cc21`, for which the survival was inactive: 94%.

As for `CCOC(=O)c1ccc(NC(=O)c2cccc3c(=O)c4c([nH]c23)CCCC4)cc1`, the survival is inactive: 73%.

As to `CCN(CC)CCNC(=O)c1sc2nc(C)cc(C)c2c1-n1cccc1`, the survival is inactive: 85%.

On to `COc1ccc(-n2c(Cc3ccccc3)nnc2SCc2nc(-c3ccccc3C)no2)cc1`, for which the survival was inactive: 75%.

In the case of `Cc1ccc2onc(CNC(=O)N(C)Cc3ccccc3)c2c1`, the survival is inactive: 84%.

Take `O=C1c2[nH]nc(-c3ccccc3O)c2C(c2cccc(Br)c2)N1Cc1ccncc1` (stereo unspecified): the survival is inactive: 84%.

As for `CN(C(=O)CSc1cn(CC(=O)N2CCCC2)c2ccccc12)c1ccccc1`, the survival was inactive: 83%.

Consider `O=C(Nc1ccc(Br)cc1F)c1ccc2nc(CCc3ccccc3)oc2c1`, for which the survival is inactive: 101%.

Regarding `COc1ccc(Nc2nc(-c3ccccc3)c3cc(Br)ccc3n2)cc1`, the survival was inactive: 37%.

For the compound `Cc1ccc(N(C)S(=O)(=O)c2ccc(-c3cnc(C4CC4)o3)cc2)cc1`, the survival was inactive: 76%.

Regarding `CCn1c(CN2CCCCC2)nc2cc(NC(=O)COc3cc(C)ccc3C(C)C)ccc21`, the survival is inactive: 83%.

In the case of `O=C(Cn1ncc2c3ccccc3n(Cc3ccc(F)cc3)c2c1=O)NC1CCCCCC1`, the survival was inactive: 81%.

As to `NC(=O)Cn1cnc2sc3c(c2c1=O)CCCC3`, the survival is inactive: 105%.

Take `CCOC(=O)c1cc(-c2ccccc2)n(-c2cccc(C(=O)NC(C)CC)c2)c1C` (stereo unspecified): the survival was inactive: 22%.

As to `Clc1ccccc1CNc1nc2ccccc2c2nc(-c3ccccc3)nn12`, the survival is inactive: 106%.

As to `O=C(C1CCCCC1)N(Cc1cccnc1)c1nc2c(F)cccc2s1`, the survival is inactive: 117%.

Consider `CC(C)Oc1ccc(CNC(=O)c2ccc3c(c2)N(Cc2ccc(F)cc2)CCS3)cc1`, for which the survival is inactive: 80%.

`Cc1ccc(C)c(NC(=O)N2CCN(c3nnc(C)c4c(C)n(-c5ccccc5)nc34)CC2)c1`: the survival is inactive: 92%.

As for `COc1cc2c(cc1OC)C(COc1ccccc1OC)N(C(=O)c1ccc(S(=O)(=O)N3CCCC3)cc1)CC2` (stereo unspecified), the survival was active: 0%.

For the compound `CCOc1ccccc1NC(=O)c1c(NC(=O)Cc2ccccc2)sc2c1CCCC2`, the survival is inactive: 87%.

As for `Cc1cc(C)c(S(=O)(=O)Nc2ccc(-c3ccc(N4CCCCC4)nn3)cc2)c(C)c1`, the survival is inactive: 98%.

On to `CCC(C)NC(=O)C1CCCN(S(=O)(=O)c2ccc(C)c(Cl)c2)C1` (stereo unspecified), for which the survival was inactive: 109%.

As to `COc1ccc(C)cc1NC(=O)CN1CCCN(S(=O)(=O)c2ccc(Br)cc2)CC1`, the survival is inactive: 124%.

Turning to `CCNc1ccc2noc3c2c1C(=O)c1ccccc1-3`, the survival was inactive: 130%.

Turning to `Cn1cc(C(=O)N2CCN(c3cccc(Cl)c3)CC2)c(=O)c2cc(S(=O)(=O)N3CCCC3)ccc21`, the survival is inactive: 132%.

For the compound `COCCCNC(=O)CN1C(=O)COc2ccc(S(=O)(=O)N3CCOCC3)cc21`, the survival is inactive: 116%.

Consider `COC(=O)c1cc(OC)c(OC)c(OC)c1NC(=O)c1cc(=O)n(C)c(=O)n1C`, for which the survival was inactive: 85%.

Consider `CCOc1ccc(NC(=O)CSc2ccc3ccccc3n2)cc1`, for which the survival is inactive: 67%.

As to `COC(=O)c1cccc(Nc2c(-c3ccc(O)cc3)nc3nc[nH]n23)c1`, the survival was inactive: 148%.

`COc1ccc(N2CCN(C(=O)c3cn(C4CCCCC4)c(=O)c4c3c3ccccc3n4C)CC2)cc1`: the survival is inactive: 75%.

Consider `NC(=O)CSc1nc2ccccc2c(=O)n1Cc1ccco1`, for which the survival is inactive: 111%.

Consider `COC(=O)CSCc1nc(-c2ccc(C(=O)OC)cc2)oc1C`, for which the survival is inactive: 80%.

For the compound `O=C(CCNS(=O)(=O)c1cccc2nonc12)Nc1ccc(F)cc1`, the survival is inactive: 63%.

For `O=C(Nc1ccc(F)cc1F)c1cc2ccc3cccnc3c2[nH]1`, the survival is inactive: 65%.

Take `Cc1cccc(C)c1NC(=O)N1CCC(C(N)=O)(N2CCCCC2)CC1`: the survival is inactive: 106%.

Take `Cc1ccccc1Nc1cc(C(=O)NC2CCC(C)CC2)c2ccccc2n1` (stereo unspecified): the survival was inactive: 92%.

On to `CCOC(=O)c1ccc(NC(=O)c2c(NCc3cccc(OC)c3)sc3c2CCC3)cc1`, for which the survival is inactive: 68%.

For the compound `CN1CCN(Cc2nnnn2CC2CCCO2)CC1` (stereo unspecified), the survival was inactive: 106%.

`O=C(CCCOc1ccccc1)Nc1nccs1`: the survival was inactive: 98%.
